In the supplement of paper PMC10338343:
± gives the standard deviation. The entries are a selection whose mix differs from that of the whole data set.

Test system: MIWI (PIWIL1) piRISC loaded with piRNA #1 (30 nt)
Assay: pre-steady-state target cleavage rate (min^-1); MIWI and MILI are mouse PIWI proteins and EfPiwi is from a freshwater sponge; tags in brackets are library labels; higher = faster piRNA-guided slicing of the target
Conditions: guide: piRNA #1 5'p-UGAGGUAGUAGGUUGUAUAGUAUCCAGAGG; auxiliary factor: 500 nM mouse GTSF1
How it was run: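 Using HEPES–potassium acetate buffer at 33 °C, 1 nM active affinity-purified piRISC with a single synthetic guide was mixed with 0.1 nM transcribed, DNA-blocked target RNA library for 0–8 or 0–960 min, with or without 500 nM GTSF1 partner protein. Uncleaved targets were sequenced and normalised to depth and to weakly complementary targets, and three trials were pooled with k3 capped at 0.0001 min^-1. A burst-and-steady-state fit gave the pre-steady-state cleavage rate.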

| Sequence | pre-steady-state target cleavage rate |
| --- | --- |
| GGAUUGGAUACUAUACAACCUACUACCUCA | 1.77 ± 0.095 |
| CCUCUGGAUACUUUACAAGCUACUACCUCA | 1.41 ± 0.076 |
| GGAGACCUAACUAUAGUACCUACUACCUCA | 0.0662 ± 0.024 |
| CCUCUGGAUACUUUUCAACCUACUACCUCA | 1.35 ± 0.087 |
| GGACUGGAUACUCUACAACCUACUACCUCA | 1.57 ± 0.11 |
| GGAGACCUAUUUAUACAACCUACUACCUCA | 0.332 ± 0.046 |
| GGAGUGGAUACAAUACAACCUACUACCUGA | 0.272 ± 0.041 |
| GGAGACGAUACAAUACAACCUACUUCCUCA | 0.408 ± 0.056 |
| GGAGACGAUACAUAUACAACCUACUACCUCA | 1.32 ± 0.084 |
| CCUCUGGAUACUAUACAACCUACUACUCA | 1.76 ± 0.15 |
| GGAGACCUAACUAACAACCUACUACCUCA | 0.00953 ± 0.0044 |
| GGAGUGGAUACUAUACAACGUACAACCUCA | 0.411 ± 0.04 |
| GGUCUGGAUACUAUACAACCUACUUGCUCA | 0.00368 ± 0.0029 |
| GGAGACCAUUCUAUAGAACCUACUACCUCA | 0.863 ± 0.076 |
| GGUCUGGAUACUAUACAACCUACCUACCUCA | 1.12 ± 0.072 |
| GGAGACCUUUCUAUACAACCAACUACCUCA | 0.0184 ± 0.0041 |
| GGAGUGGUUUCUAUACAACCUACUACCUCA | 1.32 ± 0.081 |
| GGACUGGAUACUAUACAUCCUACUACCACA | 1.43 ± 0.12 |
| GGACUGCAUACUAUACAACCUACUUCCUCA | 0.00834 ± 0.0022 |
| GGAGACGAUACUAUAACAACCUACUACCUCA | 1.32 ± 0.1 |

| Sequence | pre-steady-state target cleavage rate |
| --- | --- |
| GGAGACGAUACUUUACAACCUACUACCACA | 0.641 ± 0.061 |
| GCUCUGGAUACUCUACAACCUACUACCUCA | 1.57 ± 0.081 |
| CCUCUCGAUACUAUACAACCUACAACCUCA | 1.34 ± 0.077 |
| GGUCUGGAUACUAUACAAGCAACUACCUCA | 0.026 ± 0.0043 |
| GGAGACCUAACUAUACAACCUUCUUCCUCA | 0.0214 ± 0.007 |
| GCUCUGGAUACUAUACAACCACUACCUCA | 0.0144 ± 0.0047 |
| GGACUGGAUACUAUUCUACCUACUACCUCA | 1.04 ± 0.11 |
| GGUCUGGAUUCUAUACAACCUAGUACCUCA | 0.515 ± 0.067 |
| GGAGACCUUACUAUACAACCUACUACUCUCA | 1.58 ± 0.11 |
| GGAGACCUUACUUUACAACCUAGUACCUCA | 0.283 ± 0.038 |
| GGAGACCUAACUAUACAACCUACUACAUCA | 0.847 ± 0.057 |
| GGUCUGGAUAUAUACAACCUACUACCUCA | 1.7 ± 0.12 |
| GGACUGGGUACUAUACAACCUACUACCUCA | 1.65 ± 0.13 |
| GGACUGAGAUACUAUACAACCUACUACCUCA | 1.72 ± 0.12 |
| GGACUGGAUACUGUACAACCUACUACCUCA | 1.79 ± 0.13 |
| GGUCUGGAUACUAUAGAACGUACUACCUCA | 0.0939 ± 0.018 |
| GGAGACCUAUGAUAUCAAGCUACAACCUCA | < 0.0001 |
| GGAGACCAUACUAUCCAACCUACUACCUCA | 1.69 ± 0.13 |
| GCUCUGGAUACAAUACAAGCUACUACCUCA | 1.18 ± 0.067 |
| GCUCUGCAUACUAUACAACCUACAACCUCA | 1.37 ± 0.12 |
